Measured values from US20020160955A1 (published 2002).

Target: T1, human IGFBP-1 (human, UniProt P08833 26-259)
T1 construct: secreted recombinant protein purified from conditioned medium
T1 sequence (looked up): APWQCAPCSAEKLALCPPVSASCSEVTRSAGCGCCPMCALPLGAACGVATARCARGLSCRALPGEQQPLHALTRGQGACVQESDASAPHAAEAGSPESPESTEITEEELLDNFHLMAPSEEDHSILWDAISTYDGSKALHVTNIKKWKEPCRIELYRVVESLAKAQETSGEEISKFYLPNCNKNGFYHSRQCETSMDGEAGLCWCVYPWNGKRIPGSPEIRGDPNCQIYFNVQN
Assay: BIACORE, IGFBP-1 injected over Y31C IGF-I immobilized via disulfide linkage

- Kd: 10 nM
- koff: 0.00038 s⁻¹
- kon: 39000 M⁻¹ s⁻¹
B1: Y31C IGF-I (purified, soluble) (ligand)
chain: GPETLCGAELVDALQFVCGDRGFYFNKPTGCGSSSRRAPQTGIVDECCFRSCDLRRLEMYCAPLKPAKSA
notes: immobilized onto the sensor chip surface via a disulfide linkage through the unpaired Cys 31; also called single-cysteine IGF-I variant
